This is one part of the list.
Molecular target: T1, OsWOX13 (Oryza sativa, UniProt Q5QMM3 1-267)
T1 sequence: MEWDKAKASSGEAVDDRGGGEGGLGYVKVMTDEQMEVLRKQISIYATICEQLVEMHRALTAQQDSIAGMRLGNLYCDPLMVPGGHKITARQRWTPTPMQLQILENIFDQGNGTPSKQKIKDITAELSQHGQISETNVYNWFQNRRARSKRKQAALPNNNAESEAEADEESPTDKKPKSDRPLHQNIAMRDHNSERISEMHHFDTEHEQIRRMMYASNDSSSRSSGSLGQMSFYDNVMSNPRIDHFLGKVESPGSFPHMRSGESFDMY
Assay: protein-binding microarray (RPBM); PBS, 2% BSA, 51.3 ng/ul salmon testes DNA, 50 uM zinc acetate, 200 nM TF, 25 C, 1 h; high values mean tight binding
Details: protein: recombinant; tags: N-terminal polyhistidine and DsRed monomer fusion (pET32a); label: CyDye5-dUTP incorporated in the synthesized complementary strand; 3' TTTTT single-stranded linker to array surface; dsDNA, one strand shown
Summary of the method: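 For the binding signal, per-feature fluorescence intensity was read in arbitrary units on an Axon 4000B scanner. Before scanning, a 2% BSA-blocked custom Agilent array made double-stranded with Cy5-dUTP was washed after 1 h at 25 °C with 200 nM protein and 50 µM zinc acetate. The proteins were Ni–NTA-purified transcription factors with N-terminal polyhistidine and DsRed fusions, expressed in E. coli BL21-CodonPlus.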

Sequence | binding signal
AACTGATGAGTCGTTGATTTTCTGTAAAATTACGAGTTAACGGAGTCACCTAGTGCAG | 28400 fluorescence intensity (a.u.)
AATTGTTAGCCCTTGATTGAGTGGCTGGTGCTCCACGTTTCGGAGTCACCTAGTGCAG | 28800 fluorescence intensity (a.u.)
ATTGATGACCTACCAAAATTTTGGTAGTGCCAAATCTTGGCGGAGTCACCTAGTGCAG | 5320 fluorescence intensity (a.u.)
ACCAATCACCACCGCCCAACGCGCACACGCCCACGCGCTCCGGAGTCACCTAGTGCAG | 4100 fluorescence intensity (a.u.)
TAAAATCAATCAGGTTTCAATATCAATAGGTGTTTTCACTCGGAGTCACCTAGTGCAG | 16300 fluorescence intensity (a.u.)
GACTTTTCTGAGTGACAATCAAACTAGCTAGCACACATTTCGGAGTCACCTAGTGCAG | 6220 fluorescence intensity (a.u.)
CCATAACACAAATTTAACGCTCATAAAATTTCAAATTAGTCGGAGTCACCTAGTGCAG | 3640 fluorescence intensity (a.u.)
GGATCCAATCAGAACACAGTTGCTAGCTGTGAATGTCAAACGGAGTCACCTAGTGCAG | 5360 fluorescence intensity (a.u.)
GACAAAATTGACAGTCTCTCAGGATACATACTGACTGCAACGGAGTCACCTAGTGCAG | 42000 fluorescence intensity (a.u.)
TTATAAATATGATAGATAGAAATGTTGAAATATTGTGGAACGGAGTCACCTAGTGCAG | 8720 fluorescence intensity (a.u.)
GTTTGTGATTAATCTGATTTCGTACTATTAACGTGCAACTCGGAGTCACCTAGTGCAG | 31300 fluorescence intensity (a.u.)
TAACTTACTGATTGGACAATATTGCAGAACGTCCACTCCGCGGAGTCACCTAGTGCAG | 27900 fluorescence intensity (a.u.)
TCAAATTTTGATAGATTTTGGTAAGGTTGCAATGGTAAAACGGAGTCACCTAGTGCAG | 20400 fluorescence intensity (a.u.)
ATTTTCTTCCCAACCAATCACAACTCTCCACCATTCACTTCGGAGTCACCTAGTGCAG | 3400 fluorescence intensity (a.u.)
TTTCTGATAATGGAATGATGAAATCATGTATCATACCCATCGGAGTCACCTAGTGCAG | 9080 fluorescence intensity (a.u.)
CCCGATTTAAATCTAGATTGTTCTGCCTTGTTATGTCAGACGGAGTCACCTAGTGCAG | 28900 fluorescence intensity (a.u.)
TTCACAAATTGGCCATCTTATTCTTTTCGTAGCGTGCAAACGGAGTCACCTAGTGCAG | 10200 fluorescence intensity (a.u.)
ATTCCACGGTCAAATCTTGAGATTGACGAATTCACGACAACGGAGTCACCTAGTGCAG | 5440 fluorescence intensity (a.u.)
TTTGATATGATAGAAGCCCAACCTAATATGTATGAAACATCGGAGTCACCTAGTGCAG | 7740 fluorescence intensity (a.u.)
CCTCTTGATTGATTGCTCGGTCGACTGATTGCTTCTTACACGGAGTCACCTAGTGCAG | 65000 fluorescence intensity (a.u.)
GCAGCAGAAGCACGGGGATGATTGGCCAGATCGGGTTAGGCGGAGTCACCTAGTGCAG | 3150 fluorescence intensity (a.u.)
TGTAAATGATGCTTCTATTTTACTTGAGTTCATTATGAGGCGGAGTCACCTAGTGCAG | 3290 fluorescence intensity (a.u.)
TCTCGCCTCTGCTCGTTTTGATTGCCAATTGGGCTTGGATCGGAGTCACCTAGTGCAG | 7480 fluorescence intensity (a.u.)
GATTAATTAGGCTTAATAAATTCGTCTCACGTTTACTGACCGGAGTCACCTAGTGCAG | 39300 fluorescence intensity (a.u.)
CTTGACGGGCTTTCATTAAAGGCCTGGCCCAACCCATCACCGGAGTCACCTAGTGCAG | 3550 fluorescence intensity (a.u.)
GAAATCAGCCGCCAAGATTACACTTTAATTTGGCGGTTCACGGAGTCACCTAGTGCAG | 4820 fluorescence intensity (a.u.)
CTATAGTCAATTTAATAATCAATTCATACAATAATTACCTCGGAGTCACCTAGTGCAG | 22300 fluorescence intensity (a.u.)

Sequence | binding signal
TCTAATTTACAACATTGATTTTGTTTAACAAAACGCTAGACGGAGTCACCTAGTGCAG | 29900 fluorescence intensity (a.u.)
TATGGGAATAAGGGATGCCAATCAACTTGACGTAAAGTTACGGAGTCACCTAGTGCAG | 3450 fluorescence intensity (a.u.)
TTATGATTATTTTAGAATTTTCAAAATCATGGAATATAATCGGAGTCACCTAGTGCAG | 7490 fluorescence intensity (a.u.)
TTTTCAGATAATTAACACAACACAGCTCACGGTTTCGTCTCGGAGTCACCTAGTGCAG | 7280 fluorescence intensity (a.u.)
ATAAAATATATGATTTGCTATTCATACTAATAAAATACAACGGAGTCACCTAGTGCAG | 3770 fluorescence intensity (a.u.)
AGTTTGATGATAAAAGATGGAGATACGTTTGATTTATGATCGGAGTCACCTAGTGCAG | 3330 fluorescence intensity (a.u.)
CATCTGATTACTCCATGCTCTCAAATCGTAACCTCCAACACGGAGTCACCTAGTGCAG | 13800 fluorescence intensity (a.u.)
AGCCAATCAAAGGCACACGTAGGACGAGACCCCATCCAACCGGAGTCACCTAGTGCAG | 10500 fluorescence intensity (a.u.)
GCGTGATTAATCATGGCCATTAACTACCAGTTGCAGATTGCGGAGTCACCTAGTGCAG | 34900 fluorescence intensity (a.u.)
GTGCAAATTGTCCATTGACCCATACAAAGGAGATTGTTCTCGGAGTCACCTAGTGCAG | 3470 fluorescence intensity (a.u.)
TCGGTAAATTATTCGAGCCATTCCTCTTCAAGTTCTCCCACGGAGTCACCTAGTGCAG | 3660 fluorescence intensity (a.u.)
GTTAACAATTTACTATTATGGATATCTGATGACAATACCACGGAGTCACCTAGTGCAG | 8390 fluorescence intensity (a.u.)
CATTCTAATTAACTCTAAATGAGTGAATTGCACTTTGTGCCGGAGTCACCTAGTGCAG | 28500 fluorescence intensity (a.u.)
TCCACATCCAATTAACAGCGGGCACAAGCTAGCCCTCGATCGGAGTCACCTAGTGCAG | 7390 fluorescence intensity (a.u.)
CTTTAATTTGAAGGAAATATATATGAATGTTGGAGGATATCGGAGTCACCTAGTGCAG | 10300 fluorescence intensity (a.u.)
GCAGTGATTAGCATCATTATGCTTATGGAATGCAAAATCCCGGAGTCACCTAGTGCAG | 35400 fluorescence intensity (a.u.)
TTGATAGGATACGGGATAAGTGATTTATTATCTGATACCACGGAGTCACCTAGTGCAG | 9640 fluorescence intensity (a.u.)
TGTTTAATTATTCCTGCAAAACAAAGGGGAAAGTGCCTGTCGGAGTCACCTAGTGCAG | 7130 fluorescence intensity (a.u.)
ATTTAATAACTAAATTTGATACCTCAAATGAATCAGTCAACGGAGTCACCTAGTGCAG | 7340 fluorescence intensity (a.u.)
TTAACTATCCAATTTGCGCAAATGATCTCAGCTCAGCAGCCGGAGTCACCTAGTGCAG | 8660 fluorescence intensity (a.u.)
ATGATTGATGTCTTTTATTTTCTTTGTACTAAGGAGCTTGCGGAGTCACCTAGTGCAG | 62700 fluorescence intensity (a.u.)
GTAAATATTCGTTTGATTTGTACATATTAATCGTGCAGCTCGGAGTCACCTAGTGCAG | 8330 fluorescence intensity (a.u.)
GTTGTTCAATCATTCAACCCAAATAAACCACCCGACTAGACGGAGTCACCTAGTGCAG | 12700 fluorescence intensity (a.u.)
TGAGCCTAATTAATCCATCATTAACACAAACACATGTGGGCGGAGTCACCTAGTGCAG | 20700 fluorescence intensity (a.u.)
TTGAACGATTGTCAATCAGTAGTTTAGTACTTCCATATGTCGGAGTCACCTAGTGCAG | 31400 fluorescence intensity (a.u.)
AAACTCAGTATCATGAATGATTGGTGTAACCGTGTAAGTGCGGAGTCACCTAGTGCAG | 11100 fluorescence intensity (a.u.)
ACACACATTATTAACTTATCCCGATACAAATAGATTTAGACGGAGTCACCTAGTGCAG | 3160 fluorescence intensity (a.u.)
